# Laboratory results published in the RNAGym collection of RNA variant scans (doi:10.1101/gad.245936.114).
# Variants at the floor of the assay are shown more often than the library holds them.
# B1: tRNA (parent)
# chain: CUCUCGGUAGCCAAGUUGGUUUAAGGCGCAAGACUUUAAUUUAUCACUACGAAAUCUUGAGAUCGGGCGUUCGACUCGCCCCCGGGAGAUUUUUUCCUCGAGCAA
# Variants of: B1
# Experiment: nonsense suppression (GFP-seq) (ratio to wild type); higher = more function; SUP4oc tRNA, yeast GFP reporter sort-seq
# How it was run: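 Raffinose/galactose medium with 80 mg/L adenine was used to grow yeast carrying genome-integrated tRNA variants (~3% random-mutation library), RFP, and a galactose-driven GFP ochre reporter. Cells went into GFP/RFP bins, which were Illumina-sequenced, and variants with ≥100 reads and ≥30 cells were scored. Nonsense suppression (GFPSEQ) is the per-bin median GFP/RFP weighted by estimated cell share and expressed relative to the unmutated parent tRNA.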
row,Variant,nonsense suppression
1,A24G G69C,≤ 0.026
2,A24C C82A G85U,≤ 0.026
3,A23G C83A,≤ 0.026
4,A23G G86A,≤ 0.026
5,A23G G86U,≤ 0.026
6,A24G G65C G78C,≤ 0.026
7,A24G U57G,≤ 0.026
8,U22G C81G C82G,≤ 0.026
9,A23G A31C U55A G88U,≤ 0.026
10,A24G U63C G73A,≤ 0.026
11,A23U A31G,≤ 0.026
12,A23U A31C,≤ 0.026
13,A23C A30G G86U,≤ 0.026
14,A23U G73A,≤ 0.026
15,A23U G73C,≤ 0.026
16,A24C U70A,≤ 0.026
17,A24G G28C,≤ 0.026
18,A24C C75U C81G C82U,≤ 0.026
19,A23C G86A,≤ 0.026
20,A24C G88A,0.0453
21,A23U G66A,≤ 0.026
22,A23C U35G C81G,≤ 0.026
23,A23G G65C G86C,≤ 0.026
24,A24G A31G G84C,≤ 0.026

row,Variant,nonsense suppression
1,A23C U76G C77A G78A,≤ 0.026
2,U22G G61A U63A G86C,≤ 0.026
3,A23C G59C,≤ 0.026
4,A23U G78C A87G,≤ 0.026
5,A23U A30G U63A,≤ 0.026
6,A24C G28U G67U C80A,≤ 0.026
7,A24C U58A,≤ 0.026
8,A24C A54C U76A,≤ 0.026
9,A24C G59U G85U,≤ 0.026
10,A24C G26U G86C,≤ 0.026
11,A23U G59A A74G,≤ 0.026
12,A24G G78A C83A,≤ 0.026
13,A24U A30C G66U,≤ 0.026
14,A23C U57G G69C,≤ 0.026
15,A23G C72A,≤ 0.026
16,U22G C34A C56U,≤ 0.026
17,A23G C29U,0.142
18,A24C C34G C56G C77U,≤ 0.026
19,A23C A87C,≤ 0.026
20,A24G G69A A74C,≤ 0.026
21,A24G U58A A87C,≤ 0.026
22,A24C U70C G73A,≤ 0.026
23,A23U G86A,≤ 0.026
24,A23U C34U U35G,≤ 0.026

row,Variant,nonsense suppression
1,A23G A54U U71C C79U,≤ 0.026
2,A23C A31G,≤ 0.026
3,A24C G25A A60C,≤ 0.026
4,A23C A54G A89C,≤ 0.026
5,A23U C83A,≤ 0.026
6,A24C G69U A89U,≤ 0.026
7,A23U A33C,≤ 0.026
8,A23G C34U G61A G88A,≤ 0.026
9,A24C C75U,1.18
10,U22G G85U,0.796
11,A23G A60C G61U,≤ 0.026
12,A23C G66C,≤ 0.026
13,A23G U70C U71A,≤ 0.026
14,A23G G28A,≤ 0.026
15,A24G G26A,≤ 0.026
16,A23U C80A,≤ 0.026
17,A23C A60C C77G G85U,≤ 0.026
18,A24C G67C C83G,≤ 0.026
19,A24C G73C,≤ 0.026
20,U22G G66U,≤ 0.026
21,A24G U70G,≤ 0.026
22,A23U G61A C80U,≤ 0.026
23,A23G A24U U76A,≤ 0.026
24,A24C U55C G67U,≤ 0.026

row,Variant,nonsense suppression
1,A23G C34G,≤ 0.026
2,A23U C79U,≤ 0.026
3,A23G G59C C64G C77G G78A,≤ 0.026
4,A23C C56U,≤ 0.026
5,A23C C80U G84U,≤ 0.026
6,A23G A24G C64A G69U C79G,≤ 0.026
7,A23G G85A,≤ 0.026
8,A23U U55G,≤ 0.026
9,A23U G25C G69C,≤ 0.026
10,A23G U35G G59C A87C,≤ 0.026
11,A23C A24U G61C,≤ 0.026
12,U22G G67A,≤ 0.026
13,A23U U55C A60C G69U G85C,≤ 0.026
14,A23C G85U,≤ 0.026
15,A24C A62G,≤ 0.026
16,A23U C64U,≤ 0.026
17,A23G A30U U58A U63A G85U,≤ 0.026
18,A23C C34U G78U,≤ 0.026
19,U22G U35C U55A U63A,≤ 0.026
20,A23C A30G C81A A87G,≤ 0.026
21,A24C C56U G88U A89U,≤ 0.026
22,U22G C72A,≤ 0.026
23,A23G G25A U35A,≤ 0.026
24,A23U A54G,≤ 0.026

row,Variant,nonsense suppression
1,A23C C29G G61A G73A,≤ 0.026
2,A23U C72A G73A U76G,≤ 0.026
3,A24C G26A A30U C80G C81G,≤ 0.026
4,A23U G61C,≤ 0.026
5,A23U C64A G65C,≤ 0.026
6,A23C U71G,≤ 0.026
7,A23G G59C G86U,≤ 0.026
8,A23U G65C G86A G88C,≤ 0.026
9,A24G A33U G59C,≤ 0.026
10,A23U G67A,≤ 0.026
11,A24G G25A,≤ 0.026
12,A24G G25C,≤ 0.026
13,A23U A24C G25C C27U U35G C80A,≤ 0.026
14,A23U G84U,≤ 0.026
15,U22G U76A C81G,≤ 0.026
16,A23C C56G G86C,≤ 0.026
17,A23U G25U G69C,≤ 0.026
18,U22G U58G,≤ 0.026
19,A24C C27U A31C G59U,≤ 0.026
20,A23C C29A G85U,≤ 0.026
21,A24G A30U U70G C72A,≤ 0.026
22,A23U G59C A74U,≤ 0.026
23,A24G U57C A60G C75G,≤ 0.026
24,A23U G32C U57C C81A,≤ 0.026

row,Variant,nonsense suppression
1,A23G C80A,≤ 0.026
2,A23G C27G,≤ 0.026
3,A23G A24U U57A A60C G85A,≤ 0.026
4,U22G G78A,0.173
5,A23U C82A,≤ 0.026
6,A23C A30G A31G G59A G84A,≤ 0.026
7,A23G A30C A74G,≤ 0.026
8,A24C G67A U70A,≤ 0.026
9,A24G G26A A60U G78C,≤ 0.026
10,A23U C34U G84A,≤ 0.026
11,A23U G25A G32U U70A G73C,≤ 0.026
12,A23C U76A,≤ 0.026
13,A23G G61C,0.113
14,U22G G25U G66A A89G,≤ 0.026
15,A23U C75A,≤ 0.026
16,A23U C75G,≤ 0.026
17,U22G G86C,≤ 0.026
18,U22G U55G,≤ 0.026
19,A23G G84U,≤ 0.026
20,A24G C29A,≤ 0.026
21,A24G U58G A60U U76A,≤ 0.026
22,A23C C68G C79U,≤ 0.026
23,A23C A31U C75A,≤ 0.026
24,A23G G61U U71G,≤ 0.026

row,Variant,nonsense suppression
1,A23U U35A C81A,≤ 0.026
2,A23C C56G G78U G86U,≤ 0.026
3,A24C G66A,≤ 0.026
4,A23G A33U G59U G66A,≤ 0.026
5,U22G G66U A74G,≤ 0.026
6,A24G C68A C82G G84U,≤ 0.026
7,A23G G65C C75G C83A,≤ 0.026
8,A23C G28C C34G,≤ 0.026
9,A24G G32A G67A G84A,≤ 0.026
10,A24C C56A G59A U63G,≤ 0.026
11,A24C G84A A87G,≤ 0.026
12,A23C U70C,≤ 0.026
13,A23G U63C G66A C82G,≤ 0.026
14,A23G G67A,≤ 0.026
15,A23C U57G,≤ 0.026
16,U22G G84A A87C,≤ 0.026
17,A23C G25U C27G C79G,≤ 0.026
18,U22G C81G,≤ 0.026
19,A23U G32C C81G,≤ 0.026
20,U22G C83U G84A,≤ 0.026
21,A23G A24G C29U C64U G86C,≤ 0.026
22,A23C G61U C81U,≤ 0.026
23,A23U U63C C77U,≤ 0.026
